Laboratory results taken from the supplement of paper PMC4723716.
± gives the uncertainty stated by the source. In all, about 9,900 compounds were measured (“viability index relative to DMSO control”: median about 1, lowest 2% from about 0.85 on). The list shows a part of the results.

System: Plasmodium falciparum NF54 stage V gametocytes
Assay: viability index relative to DMSO control (fraction); higher = less gametocyte killing
Details: 2.5 µM, incubation time: 72 h
How it was run: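 Stage V gametocytes of P. falciparum NF54 were held in serum-free screening medium at 0.75% gametocytemia and 1.25% hematocrit, 10 µl per well of a 1,536-well plate, and exposed to compound at 2.5 µM for 72 hr at 37°C under low oxygen. A 3 µl mix of 2.5 µM MitoTracker Red CMXRos with 0.13% saponin was then added for one to two hours, after which one field per well was imaged and red particles of 20–70 µm2 were counted. The viability index equals this count divided by the plate mean from wells given solvent alone.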

[1] = library set: Broad Institute DOS
[2] = library set: Broad Institute Blood Stage

Structure (SMILES)	viability index [1]	viability index [2]
CO[C@H]1CN(C)C(=O)c2cc(NS(C)(=O)=O)ccc2OC[C@H](C)N(Cc2cncnc2)C[C@H]1C	1.08 ± 0.019	
Cc1noc(C)c1S(=O)(=O)N(C)C[C@@H]1OCc2ccccc2-c2c(n(C)c3ccccc23)C(=O)N([C@@H](C)CO)C[C@H]1C	0.916 ± 0.084	
O=S(=O)(NC[C@H]1[C@@H](c2ccccc2)[C@H](CO)N1CC1CC1)c1ccccc1	1.02 ± 0.019	
COc1ccccc1-c1cn(CC[C@@H]2CC[C@@H](NC(=O)C3CCCCC3)[C@H](CO)O2)nn1	0.9323 ± 0.0013	
CCc1cnc(N2[C@H](C#N)[C@H](c3ccc(C#Cc4ccccc4F)cc3)[C@@H]2CO)s1	1.034 ± 0.0053	
C[C@@H]1CN([C@@H](C)CO)C(=O)CCCn2nncc2CO[C@@H]1CN(C)S(=O)(=O)c1ccc2c(c1)OCCCO2	1.0105 ± 7.9e-05	
COc1ccccc1-c1cnc2c(c1)C(=O)N([C@@H](C)CO)C[C@H](C)[C@H](CN(C)C(=O)CC1CC1)O2	1.05 ± 0.028	
O=C(C[C@@H]1CC[C@H]2[C@@H](COC[C@H](O)CN2Cc2ccc(F)cc2)O1)NCCc1ccccc1	1.03 ± 0.033	
CN(C)CC(=O)N1[C@H](C#N)[C@@H](c2ccc(C#CC3CCCCC3)cc2)[C@H]1CO	1.05 ± 0.039	
O=C(C1CCCCC1)N1[C@H](CO)[C@@H](c2ccccc2)C12CN(Cc1cccc(Cl)c1)C2		0.748 ± 0.048
COc1ccc(-c2ccc([C@@H]3[C@@H](CO)N4C(=O)CN(Cc5ccccc5)C[C@@H]34)cc2)cc1	1.02 ± 0.056	
O=C(c1ccccc1F)N1CC(=O)N2[C@H](CO)[C@H](c3ccc(C#Cc4ccccc4)cc3)[C@@H]2C1	1.07 ± 0.011	
COCC(=O)Nc1ccc2c(c1)C(=O)N(C)C[C@@H](OC)[C@@H](C)CN(C(=O)c1ccncc1)[C@@H](C)CO2	1.14 ± 0.062	
OC[C@@H]1[C@@H](c2ccc(C#Cc3ccccc3F)cc2)[C@H]2CN(CC3CCOCC3)CCCCN12	0.852 ± 0.021	
COc1ccc2c3c([nH]c2c1)[C@@H](CO)N(C[C@]31CCN(CC2CCCC2)CC1)S(C)(=O)=O	1.1 ± 0.015	
C[C@@H]1CN([C@@H](C)CO)C(=O)c2cc(NC(=O)Nc3ccc(C(F)(F)F)cc3)ccc2O[C@@H](C)CCCCO[C@@H]1CN(C)CC1CCCCC1	1.07 ± 0.11	
CCS(=O)(=O)N1CC(=O)N2[C@H](CO)[C@@H](c3ccc(C#CC4CCCCC4)cc3)[C@H]2C1	0.962 ± 0.014	
CNC(=O)C[C@@H]1CC[C@@H]2[C@H](COc3ccc(NC(=O)c4ccccc4F)cc3C(=O)N2C)O1	1.13 ± 0.045	
CCC(=O)N1CC(=O)N2[C@H](C1)[C@H](c1ccc(C#CCC(C)C)cc1)[C@@H]2CO	1.02 ± 0.036	
Cc1nn(C)cc1NC(=O)C[C@@H]1CC[C@@H]2[C@H](COc3ccc(NC(=O)C4CCOCC4)cc3C(=O)N2C)O1	1.05 ± 0.026	
Cc1noc(C)c1S(=O)(=O)N(C)C[C@H]1OCc2cnnn2CCCC(=O)N([C@H](C)CO)C[C@H]1C	1.08 ± 0.013	
C[C@@H]1CN([C@@H](C)CO)C(=O)Cc2cc(NS(=O)(=O)c3ccc(F)cc3)ccc2O[C@H]1CN(C)Cc1ccncc1	0.956 ± 0.014	
C[C@@H]1CCCCO[C@@H](CN(C)S(=O)(=O)c2ccc(F)cc2)[C@@H](C)CN([C@H](C)CO)C(=O)c2cc(N(C)C)ccc2O1	1.042 ± 0.0022	
CCc1nc(N2[C@@H](C#N)[C@H](c3ccccc3-c3ccc(F)cc3)[C@@H]2CO)sc1C	0.924 ± 0.07	

Structure (SMILES)	viability index [1]	viability index [2]
C[C@@H](NC(=O)[C@@H]1[C@@H](CO)[C@@H]2Cn3c(ccc(-c4ccccc4)c3=O)[C@@H]2N1C)c1ccccc1	1.05 ± 0.015	
CO[C@H]1CN(C)C(=O)c2ccc(NC(=O)C3CCC3)cc2OC[C@@H](C)N(Cc2ccccn2)C[C@H]1C	1.05 ± 0.061	
O=C(C[C@@H]1CC[C@@H](NC(=O)Nc2ccc(C(F)(F)F)cc2)[C@H](CO)O1)NCc1cccc(F)c1	0.962 ± 0.034	
COc1ccc(S(=O)(=O)Nc2ccc3c(c2)[C@H]2C[C@H](CC(=O)N(C)C)O[C@H](CO)[C@H]2O3)cc1	1.09 ± 0.048	
COc1ccccc1NC(=O)N1CC(=O)N2[C@H](CO)[C@@H](c3ccc(-c4cccc(C)c4)cc3)[C@H]2C1	1 ± 0.12	
CCCN1C[C@H](C)[C@H](OC)CN(C)C(=O)c2cc(NC(=O)C3CCC3)ccc2OC[C@H]1C	0.958 ± 0.043	
CCCN1C[C@@H](C)[C@@H](OC)CN(C)C(=O)c2cc(NS(=O)(=O)c3ccccc3)ccc2OC[C@@H]1C	1.07 ± 0.02	
CS(=O)(=O)N1[C@@H](C#N)[C@H](c2ccc(C#Cc3cccc(F)c3)cc2)[C@@H]1CO	1.11 ± 0.073	
CC(C)C#Cc1ccc([C@@H]2[C@@H](CO)N3C(=O)CN(C(=O)c4ccc5c(c4)OCO5)C[C@H]23)cc1	1.01 ± 0.048	
N#C[C@H]1[C@H](c2ccccc2-c2cccc(F)c2)[C@@H](CO)N1C(=O)CN1CCOCC1	1.1 ± 0.098	
COc1ccc(S(=O)(=O)N(C)C[C@@H]2Oc3c(NC(=O)c4nc5ccccc5s4)cccc3C(=O)N([C@@H](C)CO)C[C@H]2C)cc1	0.979 ± 0.043	
COc1cccc(C#Cc2ccc([C@H]3[C@@H](CO)N(C(=O)C4CCCC4)[C@H]3C#N)cc2)c1		0.882 ± 0.054
CO[C@H]1CN(C)C(=O)c2cc(NC(=O)Nc3cccc(Cl)c3)ccc2OC[C@H](C)N(C(=O)Nc2c(C)noc2C)C[C@H]1C	0.7814 ± 0.0047	
O=C(NC1CCCC1)N[C@H]1C=C[C@H](CC(=O)N2CCOCC2)O[C@H]1CO	1.08 ± 0.023	
C[C@@H]1CN([C@@H](C)CO)C(=O)CCCn2nncc2CO[C@@H]1CN(C)Cc1ccc2c(c1)OCCN2C	1.04 ± 0.032	
Cc1noc(C)c1NC(=O)Nc1ccc2c(c1)C(=O)N([C@H](C)CO)C[C@@H](C)[C@H](CN(C)Cc1ccc3c(c1)OCO3)OCCCC[C@@H](C)O2	1.1 ± 0.11	
COc1ccc(CN(C)C[C@@H]2OCc3cnnn3CCCC(=O)N([C@H](C)CO)C[C@H]2C)cc1	1 ± 0.052	
C[C@@H]1CN([C@@H](C)CO)C(=O)CCCn2nncc2CO[C@H]1CN(C)C(=O)c1ccc2ccn(C)c2c1	1.08 ± 0.017	
COc1ccc([C@H]2C/C=C\C[C@@H](c3ccc4c(c3)OCO4)NC(=O)[C@@H](c3ccccc3)CC(=O)N2)c(OC)c1	0.987 ± 0.082	
COc1ccc(NC(=O)N2CC[C@@]3(CC2)CN([C@@H](CO)c2[nH]c4cc(OC)ccc4c32)C(=O)c2cccnc2)cc1	1.003 ± 0.0024	
CN(C)CC(=O)N[C@@H]1C=C[C@H](CC(=O)NCc2ccc(Cl)cc2)O[C@@H]1CO	1.17 ± 0.1	
CC(C)c1cn(CC[C@@H]2CC[C@H](NS(=O)(=O)c3ccc(F)cc3)[C@@H](CO)O2)nn1	1.16 ± 0.045	
Cc1ccccc1S(=O)(=O)N1CCCCN2[C@H](CO)[C@@H](c3ccc(C#CCN(C)C)cc3)[C@H]2C1	0.982 ± 0.04	
C/C=C/c1cnc2c(c1)C(=O)N([C@@H](C)CO)C[C@H](C)[C@H](CN(C)C(=O)Nc1cccc(OC)c1)O2	1.009 ± 0.0023	

Structure (SMILES)	viability index [1]	viability index [2]
C[C@H](CO)N1C[C@H](C)[C@@H](CN(C)Cc2ccc3c(c2)OCCN3C)OCc2cnnn2CCCC1=O	1.04 ± 0.025	
COCC(=O)N1[C@H](C#N)[C@H](c2ccc(C#Cc3ccccc3F)cc2)[C@@H]1CO	1 ± 0.012	
COCC(=O)Nc1ccc2c(c1)[C@H]1C[C@@H](CC(=O)N[C@H](C)c3ccccc3)O[C@H](CO)[C@H]1O2	1.02 ± 0.12	
CCCN(C)C[C@H]1Oc2cc(/C=C/c3ccccc3)ccc2S(=O)(=O)N([C@@H](C)CO)C[C@H]1C	1.19 ± 0.12	
O=C(C1CCCCC1)N1CC2(C1)[C@@H](c1ccccc1)[C@H](CO)N2C(=O)c1cccnc1	1.04 ± 0.13	
O=C(c1cnccn1)N1CC(=O)N2[C@H](C1)[C@@H](c1ccc(/C=C/c3ccccc3)cc1)[C@@H]2CO	1.14 ± 0.016	
CO[C@@H]1CN(C)C(=O)c2cc(NC(=O)CC(F)(F)F)ccc2OC[C@@H](C)N(CC2CC2)C[C@@H]1C	0.995 ± 0.057	
O=C(Nc1ccc(C(F)(F)F)cc1)N1[C@@H]2CNC[C@H]1[C@@H]2c1ccc(-c2ccccc2F)cc1	1.07 ± 0.086	
COc1ccc(NC(=O)N2C[C@H](O)COC[C@@H]3O[C@H](CC(=O)N4CCCCC4)CC[C@H]32)cc1	1.07 ± 0.026	
O=C(c1cccc(F)c1)N1CCCCN2[C@H](CO)[C@@H](c3ccc(C#CC4(O)CCCC4)cc3)[C@@H]2C1	1.04 ± 0.018	
COc1ccc2c3c([nH]c2c1)[C@@H](CO)N(C[C@]31CCN(Cc2nccs2)CC1)S(=O)(=O)c1ccc(C)cc1	1.02 ± 0.062	
O=C(c1ccccc1)N1CC(=O)N2[C@H](CO)[C@H](c3ccc(-c4ccccc4)cc3)[C@@H]2C1	1.02 ± 0.066	
C[C@@H]1CN([C@H](C)CO)C(=O)c2cc(-c3ccncc3)cnc2O[C@@H]1CN(C)C(=O)CN1CCOCC1	0.935 ± 0.045	
Cc1ccc(S(=O)(=O)NCC[C@@H]2CC[C@@H](NC(=O)c3cccnc3)[C@@H](CO)O2)cc1	1.23 ± 0.13	
COc1ccccc1NC(=O)N1CC(=O)N2[C@H](C1)[C@H](c1ccc(C#CC(C)C)cc1)[C@@H]2CO	1.01 ± 0.037	
Cc1noc(C)c1NC(=O)N(C)C[C@@H]1OCCCC[C@@H](C)Oc2ccc(NC(=O)Nc3ccc(C(F)(F)F)cc3)cc2C(=O)N([C@H](C)CO)C[C@@H]1C	1.06 ± 0.07	
COc1ccc(CNC(=O)N(C)C[C@@H]2OCc3ccccc3-c3c(n(C)c4ccccc34)C(=O)N([C@@H](C)CO)C[C@H]2C)cc1	0.954 ± 0.062	
Cc1ccc(S(=O)(=O)N2C[C@H](O)COC[C@H]3O[C@@H](CC(=O)NCc4ccc5c(c4)OCO5)CC[C@@H]32)cc1	1.04 ± 0.05	
CN(C)CC(=O)N[C@@H]1CC[C@@H](CCNC(=O)C2CCC2)O[C@@H]1CO	1.14 ± 0.15	
CO[C@@H](CN(C)C(=O)c1cc(Cl)cc(Cl)c1)[C@H](C)CN(C(=O)Nc1ccc(F)cc1)[C@H](C)CO	1.04 ± 0.18	
C/C=C/c1ccc([C@H]2[C@@H](CO)N3CCCCN(S(=O)(=O)c4ccc(OC)cc4)C[C@@H]23)cc1	0.972 ± 0.078	
C[C@@H]1CN([C@@H](C)CO)C(=O)c2cccc(N(C)C)c2O[C@@H]1CN(C)Cc1ccncc1	1.04 ± 0.12	
